Test results as given in the RNAGym collection of RNA variant scans (doi:10.1093/nar/gkz1192).
Read counts are not given, so values of variants with three or more changes are uncertain.

B1: CPEB3 Ribozyme (parent)
chain: UAACAGGGGGCCACAGCAGAAGCGUUCACGUCGCAGCCCCUGUCAGAUUCUGGUGAAUCUGCGAAUUCUGCUGUAUAUCUC

Variants of: B1
Assay: self-cleavage, relative activity (ratio to wild type); higher = more cleavage; in vitro, sequencing
Procedure, shortened: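 Relative activity was defined as the cleaved/total read fraction for a variant divided by the same fraction for the unmutated ribozyme. CPEB3 self-cleaving ribozyme libraries were made by rounds of error-prone PCR, barcoded, and transcribed in vitro with T7 RNA polymerase for 5 hours at 37°C, and cleavage ran through transcription plus a 15 min DNase I step before EDTA. Illumina sequencing of template-switched reverse transcripts gave the reads, and DNA sequencing mapped the barcodes. Averages come from three batches, using variants with at least 5 reads.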

Variant	self-cleavage
A3C U26C C34A A35U A45G U51A G63U	0.15
A2G U26A A28U U69C	0.35
A3C C37G U67C U72C	0.27
A2U A5G A15G C27U G33C U76C	0.18
A3C A21G G33C	0.09
A2U A3U U26C U41C U67G A75G A77G	0.19
A2U U43C A47G	0.27
A3C U26A U49C	0.39
A2G U25C C27A	0.3
A2U U41C U60C	0.41
A2U G7A A65G U72C	0.31
A3C C14A A20G C27A C38U	0.36
A2U A13G U26C U43A	0.15
A2U G9A A18U A56U G70C	0.06
A2U G7A A28G U72C	0.26
A2U G7A C23A U26G U51A G70A	0.15
A3C A13G U25A U26C U80C	0.7
A2U U31G A64G U74C	0.51
A2U C14U U69A U74C	0.76
A2U A45U U49C	0.03
A2U U26G G36A A45U A56U	0.06
A2U C71U U78C	0.49
A2U C34U A65G U67C	0.17
A3C A15G A21U G70A	0.54

Variant	self-cleavage
A3C A21G A28G A35G G61A U74A A77G	0.97
A2U C27A U60C	0.22
A2U U41C U72A	0.74
A3C C4U A5G G30U	0.17
A2U A20G U51C U58G	0.13
A2G U69A U72C U76C	0.57
A2G U25C C27A U31A	0.08
A2U A56G A57G U69A	0.24
A2U A3G U25C G36A A65U U80C	0.32
A2U U51C U54A A64G U74C	1.13
A2U A18G A47G U72G	0.34
A2G U26A G33C	0.52
A2U A18G C23U A56G A64U	0.19
A2U U25C U26C U54G	0.44
A3C A28G A35U	0.32
A3G A5C A13U U26C C39U	0.35
A2G U26A G53A	0.23
A2U C12A A13G A18G U54C C59U	0.12
A2U A21G U72C G73A	0.86
A2G U66A U67C U72A	0.11
A3C A15G G63C	1.12
A2U A18U U48C U67A U69C	0.13
A2U A13C A18G A28U U72C	0.32
A2G U43A U49G	0.5

Variant	self-cleavage
A2U A13U G30A A57G A64U U72C U80C	0.07
A2U U49C U60C A65U	0.1
A3C A57C U72A	0.27
A2U A5G G36A C39A A75U	0.38
A2U U26A U49A U60A	0.14
A3C U51C A77G	1.22
A2U A3G U31A U67C	0.32
A3C A15G A35G U49C	0.48
A3C C34A C38A	0.4
A2U A18G A20U A45U A47G U67C	0.07
A2G U31G A35G C37U A47G U76C	0.98
A2G U25C U49A G53U	0.06
A3C A28G G42A A57G C68A	0.24
A2G U43C U60C	0.21
A2U G7A A65U	0.07
A2U A21U A28U U41A U48C U51A A57U	0.05
A2U G9C G24C A28G U60A	0.06
A2U U41C A45U	0.68
A2G U51A A57G	0.24
A2U U49C U54G	0.29
A2U C23U U26G A56U U74C	0.17
A2U A28G A45G	0.14
A2U U25A U26C U43A C50U U58C U78C	0.09
A2U G7A A35G U48A G53U	0.61

Variant	self-cleavage
A2G U25C G30C C40A A65G U72A A77G	0.03
A2U A15U U26A	0.41
A2U A5U A15G A56G U67A U69C	0.19
A2G G70A U76C U80A	0.17
A2U U25C G63U	0.5
A2G U60C C62U U67C G70A	0.58
A2U A18C A21U U58C	0.15
A2G U25A A47U	0.08
A2G U49C U72A	0.16
A2G U41C A64G	0.55
A2U U25C U41C U69C	0.05
A2U A20G U41C U54C A75G	0.67
A2U A21C U72C U74A	0.12
A3C A15G U25C U58C U67C A77U	0.31
A3C U26C U43C	0.98
A2U A5G U25C U41C U67C	0.29
A2U G36U U41A A45G U60A U66C	0.06
A2U A13G G16U A18U U80A	0.29
A3C A13U U54C	1.23
A2U G8U A15U U25C A45G	0.28
A2G U31A U54C U60C U66C A77G	0.06
A2G U25C U48C	0.28
A3C C11U U41A G63C	0.5
A3C G42A U48A U72C U74C U80C	0

Variant	self-cleavage
A2G U25C U31C U54C A56U U72C U80C	0.06
A2G U26C C29A U74A U80C	0.08
A3G A5C A13G U41A U48C A64U	0.21
A2G U60C U74C	0.13
A3C A15G G30A U31C A45U G53A U80A	0.11
A2U A21G A64G U72C	0.32
A2U A20G U41A U58A G63A A64G U72C	0.12
A2U A3G A21G U72A G73U	0.85
A2U A3G A21U A57G A64U U69C U72A	0.07
A2U C32U A45U A47U U48G U66C	0.11
A2U U25G G52U A56U	0.36
A2U A3G G9A U26C C39U U66C U76A	0.03
A2G U31A A45G U48C G63A	0.28
A2G U60A U80C	0.45
A3C G22A U26G A28G C39U U41A	0.52
A2U A5C A28U	0.98
A3C U58C C62G	0.22
A2G U58C A65G	0.16
A2G G63U U74C	1.15
A2G U25C U26C G30A U54A U60C U76A	0.05
A2U A45G A75G	0.89
A3C C34U C39U A45U U51C U67C A77U	0.18
A2U U66C U72C U74A U78C	0.57
A3C A5C A15U A28G U66C G70A U72C	0.05

Variant	self-cleavage
A2G U51A U67A	0.4
A3G A5C G16U A20G C23U U41C	0.12
A2U A5G A13U U25C A77G U78C	0.21
A3C U49C A57G	0.34
A2U C4U U72C U78A	1.22
A2G U26A C40U U74A	0.3
A2U A13G U41C U69A G73A	0.7
A2U A13G G61A	0.39
A2U A20G A75G	0.67
A2U A13G A20G A35G U48C U80C	0.16
A2U U25C A47G U60A A64G	0.1
A3C A28G A47G U66A U69C U72A A77U	0.11
A2U A3G A21G A45G U51A G52U	0.51
A2U G36A U54C	0.11
A2G U51C U60A U78C	0.69
A3C U51C U54A U60A U72A	0.99
A2U A18G A47G	0.79
A2G U25C A47G U49A	0.32
A2G U26A U49A A57U	0.18
A2G U26A U67C U69C U72C	0.42
A2G G36A U66C U80C	0.1
A3C A20U U60C U72A A77G	0.26
A2U U25C A65G U69A	0.1
A2U A45U U49A G53U C59A	0.15

Variant	self-cleavage
A3C A20G A21G	0.57
A3C C40U U49C U69C C71G U72C	0.05
A3C A5G A28G A47G U80C	0.77
A3C C4G A45C U51A C62U U74C	0.12
A2G U26C U51C U54C G61A	0.35
A2U G7U A20G C23U U58C	0.08
A2U A13U U25C A47G U60C G63C	0.1
A2U A20G U41C G42A U51C	0.06
A2U A5U A18G U48C G70C U80C	0.33
A2U U25A U31C A35G U49C A57C U67A	0.06
A2U A13G A15U G30U A65G A77U	0.16
A2G U60C U67C A75G	0.09
A2U A3G U26C U31A	0.18
A2G U43C U48C U69A	0.08
A2G U58A U72C	0.23
A3C A18U U26C A45U	0.4
A2U U54C U60A U67C U78C	0.22
A3C U31C A47U U72C U78G	0.23
A2U A21G A45U U54A	0.16
A2G U26C C37G C44A U78C	0.18
A2U A5G G19U U41C U80C	0.08
A2G U26C A45U U72A	0.05
A2U A5U G10A A45G U49C G55C A64U	0
